Data from PubChem BioAssay AID686979 (National Center for Advancing Translational Sciences (NCATS), 2013).
Screen size: about 420,000 compounds; about 50,000 (12%) were called active. The shares of active, inactive and inconclusive entries below differ from those in the screen. The call rests on the fitted dose curve; in most records, active means well fitted inhibition curve with a large enough effect; inconclusive means small, poorly fitted or top-dose-only effect; inactive means flat fitted curve, though single readings scatter. Potencies of inconclusive entries are left out as doubtful fits.

experiment: qHTS for Inhibitors of human tyrosyl-DNA phosphodiesterase 1 (TDP1): qHTS in cells in presence of CPT; conditions: chicken DT40 Tdp1-/-;hTDP1 cells + 20 nM CPT, ATP luminescence, 48 h; series mostly up to 46.2 µM; further: nearly all actives have a fitted effect of over 55% in size
In short: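 Chicken DT40 Tdp1-/- cells complemented with human TDP1, 400 cells/well, exposed to compounds plus 20 nM camptothecin for at least 48 h at 37 C; viability read as ATP content by CellTiter-Glo luminescence.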
Potency means the concentration at half of the fitted maximal effect; tags describe the fitted curve by direction and shape.

Row | SMILES | Potency
1 | CC1CCN(C(=O)c2ccc(S(=O)(=O)Cc3cc(F)ccc3F)c([N+](=O)[O-])c2)CC1 | active: 6.51 µM
2 | CCNC(=S)N1N=C2c3ccccc3CCC2C1c1ccc(F)cc1 (stereo not drawn) | inconclusive [inhibitor, single point]
3 | O=C(COCc1nc2ccccc2c(=O)[nH]1)NCC1CCCCC1 | inactive
4 | COc1cccc(Nc2nc(N)c([N+](=O)[O-])c(NCc3ccco3)n2)c1 | inconclusive [inhibitor, single point]
5 | CC1CCCN(Cc2nc3c(c(=O)n(C)c(=O)n3C)n2Cc2c(F)cccc2Cl)C1 (stereo not drawn) | active: 8.2 µM
6 | COc1ccccc1-c1ccc([C@@H]2C[C@H]3[C@H](CON3C)CN2C(=O)c2ccc(-c3ccccc3)cc2)cc1 | inconclusive [inhibitor, single point]
7 | COc1ccc(-c2csc(N(CC3CCCO3)C(=O)c3ccccc3)n2)cc1 (stereo not drawn) | inconclusive [inhibitor, single point]
8 | O=C(C1CCCN(S(=O)(=O)c2ccc(Br)s2)C1)N1CCCCCC1 (stereo not drawn) | active: 20.6 µM
9 | Cc1ccc(-n2ncc3c2CCCC3NC(=O)CSc2ccccn2)cc1C (stereo not drawn) | inconclusive [inhibitor, single point]
10 | O=C(Cc1c(F)cccc1Cl)Nc1nccs1 | inconclusive [inhibitor, partial curve]
11 | COc1cccc(/C=N/NC(=O)c2ccc3nc[nH]c3c2)c1O | inconclusive [inhibitor, single point]
12 | CC(C)(C)NC(=O)C(c1ccncc1)N(C(=O)Cn1nnc(-c2ccc(F)cc2)n1)c1cccc(F)c1 (stereo not drawn) | inactive
13 | Cc1nc2ccn(Cc3cccnc3)c(=O)c2cc1C(=O)NCc1ccc(Cl)cc1 | inconclusive [inhibitor, partial curve]
14 | Cc1nn(C)c(Oc2ccccc2)c1CCNS(=O)(=O)c1ccc(F)cc1 | inconclusive [inhibitor, partial curve]
15 | Cc1ccc(C)c2[nH]c(=O)c(CN(CCN3CCCC3)C(=O)Nc3ccc(F)cc3)cc12 | inconclusive [inhibitor, partial curve, poor fit]
16 | CCN(CC)c1ccc(S(=O)(=O)N2CCOCC2)cc1NC(=O)CSc1n[nH]c(N)n1 | inconclusive [inhibitor, partial curve]
17 | O=C(NCc1ccccc1)C1=C[C@H](c2ccccc2)C[C@H](OCc2ccc(CO)cc2)O1 | inconclusive [inhibitor, single point]
18 | CCOC(=O)c1c(S(=O)(=O)N(C)Cc2ccccc2)c(C)n(C)c1C | inconclusive [inhibitor, single point]
19 | Cc1nc2sc(C(c3ccc(F)cc3)N3CCN(C(=O)c4ccco4)CC3)c(O)n2n1 (stereo not drawn) | inconclusive [inhibitor, single point]
20 | O=C(N/N=C/c1ccc[nH]1)c1cccnc1 | active: 14.6 µM
21 | COc1ccccc1-n1nnnc1SCC(=O)NCC1(N2CCOCC2)CCCCC1 | inconclusive [inhibitor, single point]
22 | COc1ccc(C(=O)Nc2ccc3c(c2)N(C2CCCC2)C(=O)c2ccccc2S3)cc1OC | active: 10.3 µM

Row | SMILES | Potency
23 | O=C(NC(NC(=S)N1CCOCC1)C(Cl)(Cl)Cl)c1ccc(Cl)cc1 (stereo not drawn) | active: 3.66 µM
24 | CC(Nc1cccc([N+](=O)[O-])c1)C(=O)Nc1ccc(S(=O)(=O)N2CCCC2)cc1 (stereo not drawn) | active: 14.6 µM
25 | CCOc1cccc(CC(=O)N2CCc3c([nH]c4ccccc34)C2c2ccc(C)cc2)c1OCC (stereo not drawn) | inconclusive [inhibitor, single point]
26 | CC(CNC(=O)c1ccc(CSc2nc3ccncc3n2Cc2cccc(F)c2)cc1)c1ccccc1 (stereo not drawn) | active: 23.1 µM
27 | Cc1sc(NC(=O)c2ccc(=O)n(C)n2)nc1-c1ccccc1 | inconclusive [inhibitor, single point]
28 | O=C(Nc1cc2cccc([N+](=O)[O-])c2oc1=O)c1cccs1 | inactive
29 | Cc1ccc(-c2cc(C(F)(F)F)n3nc(C(=O)Nc4sc5c(c4C#N)CCC(C)C5)cc3n2)cc1 (stereo not drawn) | inactive
30 | CCC(C)NC(C(=O)Nc1ccc(Cl)c([N+](=O)[O-])c1)c1ccccc1 (stereo not drawn) | inconclusive [inhibitor, single point]
31 | CCCCCc1c(-c2ccccc2F)ncn1CCc1ccccc1OC | active: 16.4 µM
32 | COC(=O)c1c(SC)nc2ccccc2c1OCc1ccc(C)cc1C | inconclusive [inhibitor, partial curve]
33 | COCCn1c(SCC(=O)N(C(C)C)C(C)C)nnc1-c1cc2ccccc2cc1O | inconclusive [inhibitor, single point]
34 | CC(NS(=O)(=O)c1cccc(Cl)c1)C(=O)Nc1ccc(-c2nc3ccccc3s2)cc1 (stereo not drawn) | inconclusive [inhibitor, single point]
35 | O=C(NCc1csc2ccc(Cl)cc12)Nc1ccccc1 | inconclusive [inhibitor, single point]
36 | CC(C)(C)NC(=O)C(c1ccccc1)n1c(-c2ccc(-c3ccccc3)cc2)nc2ccccc21 (stereo not drawn) | inconclusive [inhibitor, single point]
37 | O=C(Cn1cc(S(=O)(=O)N2CCN(c3ccccc3F)CC2)c2ccccc2c1=O)Nc1cccc(C(F)(F)F)c1 | inconclusive [inhibitor, single point]
38 | CCc1ccccc1NC(=O)Cn1cccc1C1=NC(c2ccccc2)CO1 (stereo not drawn) | inactive
39 | O=C(NCCc1ccccc1)C(=O)NCC(c1cccnc1)N1CCN(c2ccccc2)CC1 (stereo not drawn) | active: 20.6 µM
40 | N#Cc1ccccc1NC(=O)C1CC(=O)N(c2ccc3c4c(cccc24)CC3)C1 (stereo not drawn) | inactive
41 | O=C(COc1ccc(S(=O)(=O)N2CCCC2)cc1)N1CCCC1 | inactive
42 | CN(Cc1cnn(Cc2ccccc2)c1)C(=O)CN=C1NS(=O)(=O)c2ccccc21 | inactive
43 | O=C1Nc2cc(C(=O)NCCCN3CCCC3)ccc2S/C1=C\c1ccccc1 | inconclusive [inhibitor, single point]
